According to PubChem BioAssay AID1645882 (National Center for Advancing Translational Sciences (NCATS), 2021):
The whole screen tested about 16,000 compounds, of which about 120 (0.75%) were called active. Roughly 4% stayed inconclusive and do not appear here. The call rests on the fitted dose curve; in most records, active means well fitted inhibition curve with a large enough effect; inconclusive means small, poorly fitted or top-dose-only effect; inactive means no such curve, though single readings can be large or run the other way. The list shows a part of the results.

The compounds below were run against Rap guanine nucleotide exchange factor 3 (Homo sapiens) (UniProt O95398) (assay: Validation qHTS for antagonist of cAMP-regulated guanine nucleotide exchange factor 3 (EPAC1)). Details: EPAC1 Rap1B-BODIPY-GDP exchange, fluorescence; series mostly up to 150 µM; activity change, negative = inhibition: at the top concentration.
In short: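 Nucleotide exchange followed as fluorescence loss when BODIPY-GDP leaves Rap1B (480 nm excitation, 540 nm emission), read at 5 min intervals over 30 min. Reaction: 100 nM EPAC1, 250 nM RAP1B-BODIPY-GDP, 50 uM GDP; ATA and DMSO define normalization.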
Further: nearly all actives have a fitted effect of over 75% in size.
Potency means the concentration at half of the fitted maximal effect.
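Wherever activity change, negative = inhibition is given: plate controls were DMSO for no effect and ATA control for full effect.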

UniProt O95398, sequence (O95398 whole entry, looked up): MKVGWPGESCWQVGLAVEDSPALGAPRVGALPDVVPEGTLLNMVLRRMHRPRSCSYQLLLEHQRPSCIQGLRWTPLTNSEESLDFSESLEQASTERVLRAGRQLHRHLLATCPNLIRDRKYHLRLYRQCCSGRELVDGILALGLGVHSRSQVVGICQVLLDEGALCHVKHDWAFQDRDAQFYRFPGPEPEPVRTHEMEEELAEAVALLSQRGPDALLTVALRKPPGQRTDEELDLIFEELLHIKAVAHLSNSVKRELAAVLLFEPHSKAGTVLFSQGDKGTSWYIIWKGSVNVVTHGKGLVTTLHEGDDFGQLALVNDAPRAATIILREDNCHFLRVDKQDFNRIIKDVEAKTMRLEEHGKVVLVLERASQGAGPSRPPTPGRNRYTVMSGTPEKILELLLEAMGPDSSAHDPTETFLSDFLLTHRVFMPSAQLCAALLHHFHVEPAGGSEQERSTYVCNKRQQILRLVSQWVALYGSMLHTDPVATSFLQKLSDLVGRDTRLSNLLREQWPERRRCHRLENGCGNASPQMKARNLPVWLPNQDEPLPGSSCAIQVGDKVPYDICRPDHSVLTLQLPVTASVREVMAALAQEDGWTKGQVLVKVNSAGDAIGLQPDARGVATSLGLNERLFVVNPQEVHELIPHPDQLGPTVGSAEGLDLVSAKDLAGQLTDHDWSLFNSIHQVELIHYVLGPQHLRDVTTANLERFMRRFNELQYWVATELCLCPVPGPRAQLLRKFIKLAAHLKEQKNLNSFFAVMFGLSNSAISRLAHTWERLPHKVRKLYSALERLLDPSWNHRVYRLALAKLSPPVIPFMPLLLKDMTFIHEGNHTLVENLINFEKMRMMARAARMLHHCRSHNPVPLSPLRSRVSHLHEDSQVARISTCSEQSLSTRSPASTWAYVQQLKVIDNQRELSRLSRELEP

Activity change, negative = inhibition, inactive:
Cc1noc(C)c1-c1nc(NC2CCNCC2)c2ccccc2n1 -0.308%
CCS(=O)(=O)CCn1c([N+](=O)[O-])cnc1C
N#Cc1cccc(-c2ccc3ncnc(NCc4ccccc4)c3c2)c1 -13.9%
COc1cc(OC)c2c(c1)OC(c1ccccc1)CC2=O (centres undefined) 2.39%
CC[C@H]1OC(=O)[C@H](C)C(=O)[C@H](C)[C@@H](O[C@@H]2O[C@H](C)C[C@H](N(C)C)[C@H]2O)[C@](C)(OC)C[C@@H](C)C(=O)[C@H](C)[C@H]2N(CCCCn3cnc(-c4cccnc4)c3)C(=O)O[C@]12C
COC(=O)c1ccc(CN2CCOc3ccc(CN4CCC(O)(c5cccnc5)CC4)cc3C2)cc1 13.8%
CCCCOc1cc(C(=O)NCCN(CC)CC)c2ccccc2n1
NC(N)=NCC1COC2(CCCCC2)O1 (centres undefined) 13.1% [at 75.8 µM]
Cn1c(=O)c(-c2ccc(F)cc2)nc2cnc(Nc3ccccc3)nc21 8.41%
C/C(=C(\CCOC(=O)c1ccccc1)SS/C(CCOC(=O)c1ccccc1)=C(/C)N(C=O)Cc1cnc(C)nc1N)N(C=O)Cc1cnc(C)nc1N 15.1%
CC(=O)OCC1OC(n2cnc3c(=O)[nH]cnc32)C(OC(C)=O)C1OC(C)=O (centres undefined) 20.2%
COc1ccc(-c2nc3cnc(Nc4ccccc4)nc3n(CCC#N)c2=O)cc1 90.9%
CC(C)=CCC/C(C)=C\COc1c2ccoc2cc2oc(=O)ccc12 -12%
O=C(NCCc1ccncc1)c1cnn(-c2ncc3c(n2)-c2ccccc2CCC3)c1C1CC1 9.65%
COc1cc(C(=O)Oc2ccc3c(OC)c4ccoc4nc3c2OC)cc(OC)c1OC 7.56%
COC(=O)CC1[C@@]2(C)C[C@]34OC5(C)OC6(C7CC(=O)OC(c8ccoc8)[C@]7(C)CCC6(O5)[C@]13C)C(OC(C)=O)[C@]4(OC(C)=O)C2OC(C)=O (some centres undefined) 20%
COc1ccc(NC(=O)N2CC[C@@]3(CCCN(C(=O)c4ccc(OC)cc4)C3)C2)cc1 34.9%
CC/C=C\C/C=C\C/C=C\C/C=C\C/C=C\CCCCCC(=O)O 10.9% [at 15.3 µM]
COc1ccc(C(=O)N2CCC[C@@]3(CCN(C(=O)Nc4ccccc4)C3)C2)cc1 3.45%
CCC1(C2CCN(C(=O)c3cc(C)cc(C)c3)CC2)NC(=O)N(CCc2scnc2C)C1=O (centres undefined) 10.1%
O=C(c1ccncc1)N1CCC2(CC1)CN(c1ccccc1)C2 2.82%
COC(=O)[C@@H]1[C@H]2C[C@H]3c4[nH]c5ccccc5c4CCN3C[C@@H]2CC[C@@H]1O
C[C@]12C=CC(=O)C=C1CC[C@@H]1[C@@H]2[C@@H](O)C[C@@]2(C)[C@H]1CC[C@]2(O)C(=O)COC(=O)CCC(=O)O 50%
Cc1cnc(SCCN2CCOCC2)nc1C1CCCN(C(=O)c2cccc3c(C)c(C)[nH]c23)C1 (centres undefined) 15.4%
COc1ccc(-n2c(=O)c(CCc3ccccc3)nc3cnc(N(C)C)nc32)cc1 15%
CCC(C)n1ncn(-c2ccc(N3CCN(c4ccc(OC[C@H]5CO[C@](Cn6cncn6)(c6ccc(Cl)cc6Cl)O5)cc4)CC3)cc2)c1=O (some centres undefined) -6.01%
NC(=O)CC[C@@H]1NC(=O)[C@H](Cc2ccccc2)NC(=O)[C@H](Cc2ccc(O)cc2)NC(=O)CCSSC[C@@H](C(=O)N2CCC[C@H]2C(=O)N[C@@H](CCCN=C(N)N)C(=O)NCC(N)=O)NC(=O)[C@H](CC(N)=O)NC1=O
COc1ccccc1-c1ccnc(-n2ncc(C(=O)NCc3ccncc3)c2C)n1 13.4%
NCC[C@H](O)C(=O)N[C@@H]1C[C@H](N)[C@@H](O[C@H]2O[C@H](CN)CC[C@H]2N)[C@H](O)[C@H]1O[C@H]1O[C@H](CO)[C@@H](O)[C@H](N)[C@H]1O 10.9%
O=Cc1ccccc1-c1cn(CN2C(=O)c3ccccc3C2=O)nn1 -6.83%
COc1ccc(NC(=O)N2CCCC3(CCN(S(=O)(=O)c4ccccc4)CC3)C2)cc1 11.8%
COC(=O)C(CN)c1c[nH]c2ccc(OC)cc12 (centres undefined) -0.266%
CC1(C)NC(=O)N(c2ccc([N+](=O)[O-])c(C(F)(F)F)c2)C1=O
CCn1c(-c2ccccc2F)nc2cc(NC(C)=O)cc(C(=O)N3CCNC(=O)C3CC(=O)OC)c21 (centres undefined) 17.7%
CCN1C(=O)CC(CC(=O)N2CCCCC2c2nccs2)(c2ccccc2C)C1=O (centres undefined) 21.4%
Cc1cnc(SCc2ccccn2)nc1C1CCCN(C(=O)c2scc3c2CCCC3)C1 (centres undefined) -3.8%
COc1cccc(Nc2ncc3nc(C)c(=O)n(-c4ccccc4)c3n2)c1 -16.7%
COc1ccc(C(=O)N2CCOc3ccc(CN4CCN(c5ccccn5)CC4)cc3C2)o1 5.62%
O=S1(=O)CCOCCCN1Cc1cccc(C(F)(F)F)c1 15.4%
CC(=O)N1CCC[C@@]2(CCN(Cc3nccs3)C2)C1 21.3%
O=C(CCCN1CCC(C(=O)c2ccc(F)cc2)CC1)c1ccc(F)cc1 6.23%
Cc1ccn(CCC(=O)NCC2Cc3cc(Cl)cc(-c4ccc5[nH]ccc5c4)c3O2)n1 (centres undefined) 11%
CCOC(=O)C(=O)C1(C(=O)OCC)Oc2cc(OC)cc(OC)c2C(=O)C1c1ccccc1 (centres undefined) 1.68%
CC[C@@H](C)[C@@H](CO[C@@H](Cc1ccccc1)C(=O)N[C@@H](CCS(C)(=O)=O)C(=O)OC(C)C)NC[C@@H](N)CS 27.9%
COCCn1c(=O)c(-c2cccc(C#N)c2)nc2cnc(Oc3cccc(Cl)c3)nc21 10.3%
COC(=O)c1ccc(C(=O)NCC2Cc3cccc(-c4ccc(C(=O)OC)cn4)c3O2)cc1 (centres undefined) 8.75%
CC(=O)N[C@@H]([C@@H](O)[C@H](O)[C@H](O)CO)[C@@H](O)CC(=O)C(=O)O 10.8%
COc1ccc(CN2CCC3(CC2)c2ccccc2[C@@H](NC(=O)c2ccsc2)[C@@H]3OC)cc1O 1.92%
COc1cccc(CNc2ccc3nc(-c4ccc(N)cc4)c(OC)n3n2)c1
CC(=O)N1CCC[C@@]2(CCN(c3ccccc3)C2)C1 10.1%
COC(=O)N1CCC[C@@]2(CCN(C(=O)Nc3cccc(F)c3)C2)C1 16.1%
O=C(Nc1cccc(F)c1)N1CC[C@@]2(CCCN(S(=O)(=O)c3ccccc3)C2)C1 5.39%
CC(=O)Nc1ccccc1-c1nc(CNC(=O)c2cc(C)ccc2C)c(C)o1 10.2%

Potency, active:
NC(Cc1ccc(O)c(O)c1)C(=O)O (centres undefined) 50.1 µM
